# Laboratory results published in PubChem BioAssay AID686970 (National Center for Advancing Translational Sciences (NCATS), 2013).
# Among all 360,000 compounds or so, about 6,000 (1.7%) were called active. Inconclusive means that the source gave no clear call. Such entries were picked first, then a sample of the others. Calls come from the whole dose curve; as a rule, active = well fitted cell-killing curve with a large enough effect; inconclusive = small, poorly fitted or top-dose-only effect, or effect the other way; inactive = flat fitted curve, though single readings scatter. No potency is given beside an inconclusive call; the fits are too rough.
# Test: qHTS for induction of synthetic lethality in tumor cells producing 2HG: qHTS for the HT-1080-NT fibrosarcoma cell line;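 note: NT is the 2HG producing partner of a matched IDH1 knockdown line; nearly all actives have a fitted effect of over 55% in size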;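 for activity, negative = less viability: 0% = DMSO-treated cells and -100% = media-only wells without cells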
# Conditions: HT-1080-NT fibrosarcoma viability, CellTiter-Glo ATP luminescence, 48 h; activity, negative = less viability: at 46.1 µM (top of the series) unless noted
# Summary of the method: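 Fibrosarcoma NT cells, 750 per well in 5% FBS RPMI, were exposed to compound for 48 hours. Viability: CellTiter-Glo luminescence.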
# Potency is the fitted concentration of half-maximal effect; tags give direction and shape of the fitted curve.
Structure (SMILES),"activity, negative = less viability",Potency
Cc1oc(-c2ccccc2Cl)nc1CS(=O)CC(=O)NCc1ccc(Cl)cc1 (configuration not stated),inactive: -17.7%,
O=C(NCCCN1CCOCC1)c1ccc2c(=O)n(Cc3cccc(Br)c3)c(=S)[nH]c2c1,,"inconclusive [cytotoxic, partial curve]"
CCc1ccc(-c2cc3c(=O)n(CC(=O)NCCCN4CCN(C)CC4)ncn3n2)cc1,,"inconclusive [cytotoxic, single point]"
COc1ccccc1CNc1ncnc2sccc12,,"inconclusive [cytotoxic, full curve]"
CCCCSc1nc(N)c(C#N)c(-c2cccs2)c1C#N,,"inconclusive [cytotoxic, single point]"
Cc1occc1C(=O)N/N=C/c1ccccn1,,"inconclusive [cytotoxic, single point]"
O=C(Nc1ccc2c(c1)OCO2)c1ccc(Br)s1,,"inconclusive [cytotoxic, single point]"
CN(CC(=O)Nc1ccc(Cl)cc1)C(=O)CN1C(=O)C2CCCCC2C1=O (configuration not stated),,"inconclusive [cytotoxic, partial curve]"
COC(=O)[C@@]1(Cc2ccc(F)cc2)[C@H]2c3cc(C(=O)N4CCCC4)n(Cc4cc(F)cc5c4OCOC5)c3C[C@H]2CN1C(=O)c1ccccc1,,"inconclusive [cytotoxic, single point]"
O=C(NCc1ccccc1)C(c1ccc(-c2ccccc2)cc1)N1CCN(CCN2CCOCC2)CC1 (configuration not stated),,"inconclusive [cytotoxic, single point]"
COc1cc(-c2nc3cnccn3c2Nc2ccc(C)cc2)ccc1O,,"inconclusive [cytotoxic, single point]"
COc1cc(CN2CC(=O)N(c3cccc(Cl)c3C)C2=S)cc(OC)c1OC,inactive: -11.4%,
COc1ccc(OC)c(NC(=O)CSc2ncnc3c2cnn3-c2ccccc2Cl)c1,inactive: -21.7%,
OC(c1ccc(F)c(F)c1)c1nc(-c2cccc(C(F)(F)F)c2)cs1 (configuration not stated),,"inconclusive [cytotoxic, single point]"
CCOC(=O)c1ccc2[nH]c3c(c2c1)CCCCC3=O,,"inconclusive [cytotoxic, single point]"
COC(=O)c1ccc(N2CCC(c3cc(-c4ccc(OC)cc4)n[nH]3)CC2)c([N+](=O)[O-])c1,,"inconclusive [cytotoxic, single point]"
CCOC(=O)C1=C(CN2CCc3ccccc32)NC(=O)NC1c1cccc([N+](=O)[O-])c1 (configuration not stated),,"inconclusive [cytotoxic, single point]"
CCc1ccc2[nH]c(=O)c(CN(Cc3ccccc3)Cc3nnnn3Cc3ccco3)cc2c1,inactive: -22.6%,
O=C(NCc1ccccc1)c1cc(C2CCCCN2C(=O)c2ccccc2)on1 (configuration not stated),inactive: 2.96%,
c1ccc2c(c1)OC(CCCN1CCCCC1)c1ccccc1S2 (configuration not stated),,"inconclusive [cytotoxic, single point]"
CN(Cc1nc2ccccc2c(=O)[nH]1)c1ccccc1,inactive: 7.98%,
COc1cc(OC)cc(-c2noc([C@@H]3O[C@H](CO)[C@H](O)[C@H](O)[C@H]3O)n2)c1,,"inconclusive [rising, single point]"
COC(=O)CSc1nc2cc(C)ccc2cc1C#N,inconclusive: 32.6%,
COc1ccc(CN2CN(C3CCCC3)CSC2=S)cc1,,"inconclusive [cytotoxic, single point]"

Structure (SMILES),"activity, negative = less viability",Potency
COc1cccc(C2/C(=C(/O)c3ccc4c(c3)OCO4)C(=O)C(=O)N2CCN2CCOCC2)c1 (configuration not stated),inactive: 9.16%,
N/C(=N\N=C\c1cccc(O)c1)c1nonc1N,,"inconclusive [cytotoxic, partial curve]"
COC(=O)c1cc(C(=O)N2CCN(c3ccccc3OC)CC2)cc([N+](=O)[O-])c1,,active: 0.326 µM
Oc1ccccc1/C=N/n1cnn(Cc2ccccc2Cl)c1=S,inactive: -0.465%,
O=C(Cn1nc(-c2ccccc2)c2ccccc2c1=O)Nc1ccc2c(c1)nc1n2CCOC1,,"inconclusive [cytotoxic, single point]"
N#CCC(=O)N/N=C/c1cn(Cc2ccc3ccccc3c2)c2ccccc12,,"inconclusive [cytotoxic, single point]"
Cc1ccc(NC(=S)NC(=O)C2CCCC2)cc1C,inactive: 3.56%,
CN(C)CCCNS(=O)(=O)c1ccc(NC2CCCCCC2)c([N+](=O)[O-])c1,,"inconclusive [cytotoxic, single point]"
CCC(C)c1ccc(NC(=O)C2CCCN(c3ncccn3)C2)cc1 (configuration not stated),,"inconclusive [cytotoxic, single point]"
CCC(C)[C@H]1COCCS(=O)(=O)N1Cc1ccccc1 (some centres not stated),inactive: 9.34%,
CSc1ccc2c(c1)C(N1CCN(C)CC1)Cc1ccc(F)cc1S2 (configuration not stated),,"inconclusive [cytotoxic, single point]"
Cc1cccc(N2CCN(C(=O)COc3noc4nc(C)cc(C)c34)CC2C)c1 (configuration not stated),inactive: 1.5%,
Cc1ccccc1-c1cc2nc(NCc3ccccc3F)n(C)c(=O)c2s1,inconclusive: -32.5% [cytotoxic],
Cc1ccc(N/N=C2\CCS(=O)(=O)c3sccc32)cc1,,"inconclusive [cytotoxic, full curve]"
COc1ccc(NS(=O)(=O)c2cc(NC(=O)c3ccc(F)cc3)ccc2OC)cc1,inactive: -10.6%,
Cc1cc2c(cc1C)-n1nnnc1C(N1CCN(CC(=O)NC(C)C)CC1)C(=O)N2 (configuration not stated),inactive: 19%,
CC(C)c1cccc(-c2csc(C(O)c3ccc(F)c(F)c3)n2)c1 (configuration not stated),,"inconclusive [cytotoxic, single point]"
O=C(c1cc2cc(Cl)ccc2o1)N1CCCC1,inactive: 2.64%,
COc1ccc(Nc2nc(C)nc3c2oc2ccccc23)c(OC)c1,,active: 18.4 µM
O=C(/C=C/c1ccc(Cl)c([N+](=O)[O-])c1)Nc1cccc(NC(=O)c2ccco2)c1,,"inconclusive [cytotoxic, single point]"
CC1(C(=O)NS(=O)(=O)c2ccc(Cl)cc2)CCN1C(=O)Cc1cccs1 (configuration not stated),inconclusive: 17.9%,
CCOc1ccc(S(=O)(=O)Nc2cccc(C(=O)N3CCN(c4cccc(OC)c4)CC3)c2)cc1,inactive: -2.2%,
COc1ccc(CC(=O)NNS(=O)(=O)c2ccccc2)cc1OC,,"inconclusive [rising, single point]"
CC(C)N(CCNCC(O)COc1ccc(C(C)(C)c2ccccc2)cc1)C(C)C (configuration not stated),,active: 29.1 µM

Structure (SMILES),"activity, negative = less viability",Potency
COc1cc2c(C#N)c(N3CCc4ccccc4C3)nc(N)c2c(N)n1,,"inconclusive [cytotoxic, single point]"
Cc1ccc(S(=O)(=O)Nc2ccc(N3CCOCC3)cc2)cc1C,inactive: -0.624%,
O=C(Nc1cccnc1Cl)c1cc(-c2ccc(F)cc2)on1,,"inconclusive [rising, partial curve, poor fit]"
COc1ccc(-n2ncc(C(=O)N3CCN(c4ccc(F)cc4)CC3)c2C)cc1,inactive: -9.52%,
CCc1ccc(OCC(=O)NC(NC(=S)Nc2ccccc2)C(Cl)(Cl)Cl)cc1 (configuration not stated),,active: 16.4 µM
O=C(c1ccccc1Oc1ccc(C(F)(F)F)cc1[N+](=O)[O-])N1CCOCC1,inactive: 3.02%,
NC(=O)c1cccc([N+](=O)[O-])c1,inconclusive: 25.4%,
COc1ccc(OC)c(S(=O)(=O)N2CCN(C34CC5CC(CC(C5)C3)C4)CC2)c1,inactive: -5.21%,
CC(NCC(O)COc1ccc2ccccc2c1)c1ccccc1 (configuration not stated),,active: 18.4 µM
Cc1ccc(CNC(=O)c2cccc3c2C(=O)c2ccc(N4CCCCC4)cc2S3(=O)=O)cc1,inactive: -42.5%,
CCN(C(=O)CSc1nnc(-c2cccs2)n1CC)C1CCS(=O)(=O)C1 (configuration not stated),,"inconclusive [rising, partial curve, poor fit]"
COc1ccccc1NC(=O)CNC(=O)c1ccc([N+](=O)[O-])cc1,inactive: -3.61%,
Cc1csc2nc3cc(C(N)=O)ccc3c(=O)n12,inactive: 15%,
COc1ccc(C2CC(c3ccccc3)=NN2c2ccc(S(N)(=O)=O)cc2)cc1 (configuration not stated),,"inconclusive [cytotoxic, single point]"
CCN1CCCC1CNC(=O)C1CCN(Cc2nc(-c3cccc(Br)c3)oc2C)CC1 (configuration not stated),,active: 20.6 µM
CC(C)N1C(=O)/C(=C\c2nc3ccccc3c(=O)n2-c2ccccc2)c2ccccc21,,"inconclusive [cytotoxic, single point]"
C=CCN(c1ccccc1)S(=O)(=O)c1cccc(C(=O)NCc2ccco2)c1,,"inconclusive [cytotoxic, partial curve]"
Cc1sc(NC(=O)CN(Cc2ccccc2)C(=O)C2CC2)c(C(N)=O)c1C,inactive: -2.45%,
CCc1nc2ccc(C(=O)NC3CCN(Cc4ccccc4)CC3)cn2c1N(CC)Cc1cccc(Br)c1,,"inconclusive [cytotoxic, single point]"
COc1ccc(CNS(=O)(=O)c2ccc3c(c2)CC(C)N3C(=O)C2CC2)cc1 (configuration not stated),,"inconclusive [cytotoxic, single point]"
CSc1nc2[nH]c(=O)n(O)c(=O)c2n1Cc1ccccc1,,"inconclusive [cytotoxic, single point]"
COCCNc1ncnc2c1ncn2[C@H]1CN(Cc2ccc(F)cc2)C[C@@H](CO)O1,,"inconclusive [rising, single point]"
O=C(c1cc([N+](=O)[O-])ccc1Cl)N1CCN(c2ccc([N+](=O)[O-])cc2)CC1,,"inconclusive [cytotoxic, single point]"
S=C(NC1CCCC1)N1CCN(c2ccc(Cl)cc2)CC1,inactive: -8.08%,
